Results as given in PubChem BioAssay AID504339 (National Center for Advancing Translational Sciences (NCATS), 2011).
Screen size: about 390,000 compounds; about 17,000 (4.4%) were called active. The inconclusive results got no clear call from the source; some entries with a clear call stand among them for comparison. Calls follow the shape of the dose curve; as a rule, active = well fitted inhibition curve with a large enough effect; inconclusive = small, poorly fitted or top-dose-only effect; inactive = no such curve, though single readings can be large or run the other way. Potencies of inconclusive entries are doubtful fits and often do not repeat.

Biological target: Lysine-specific demethylase 4A (Homo sapiens) (UniProt O75164)
Sequence of UniProt O75164 (O75164 whole entry, looked up, the tested form may be a part): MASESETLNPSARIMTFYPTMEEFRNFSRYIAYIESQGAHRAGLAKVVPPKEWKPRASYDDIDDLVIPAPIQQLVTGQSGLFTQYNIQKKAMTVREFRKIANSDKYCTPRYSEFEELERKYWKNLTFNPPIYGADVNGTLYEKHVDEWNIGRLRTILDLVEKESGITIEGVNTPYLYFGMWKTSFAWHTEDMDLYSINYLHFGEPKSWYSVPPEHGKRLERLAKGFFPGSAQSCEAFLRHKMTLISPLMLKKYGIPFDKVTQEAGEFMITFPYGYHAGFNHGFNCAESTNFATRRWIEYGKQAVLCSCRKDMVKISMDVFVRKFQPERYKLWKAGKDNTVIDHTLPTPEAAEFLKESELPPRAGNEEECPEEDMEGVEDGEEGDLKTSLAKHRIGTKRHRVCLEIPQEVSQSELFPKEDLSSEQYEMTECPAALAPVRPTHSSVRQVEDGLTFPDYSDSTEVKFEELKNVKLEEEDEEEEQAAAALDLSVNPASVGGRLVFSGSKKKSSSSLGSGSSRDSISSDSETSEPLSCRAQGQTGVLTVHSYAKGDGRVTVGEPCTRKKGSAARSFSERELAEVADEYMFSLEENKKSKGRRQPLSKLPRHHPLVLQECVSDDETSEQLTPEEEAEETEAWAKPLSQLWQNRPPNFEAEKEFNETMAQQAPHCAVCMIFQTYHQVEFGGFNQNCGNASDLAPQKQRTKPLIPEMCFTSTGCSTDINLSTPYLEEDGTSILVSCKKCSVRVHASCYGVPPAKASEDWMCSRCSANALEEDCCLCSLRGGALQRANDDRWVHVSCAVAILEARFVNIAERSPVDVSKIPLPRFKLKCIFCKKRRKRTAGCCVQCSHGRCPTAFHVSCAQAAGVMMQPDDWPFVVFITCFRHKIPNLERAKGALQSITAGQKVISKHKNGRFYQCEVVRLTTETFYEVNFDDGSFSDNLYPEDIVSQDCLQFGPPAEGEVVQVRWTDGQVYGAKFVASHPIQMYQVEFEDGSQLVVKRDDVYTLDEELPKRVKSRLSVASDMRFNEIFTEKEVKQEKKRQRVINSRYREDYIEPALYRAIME
Assay: qHTS Assay for Inhibitors of JMJD2A-Tudor Domain; also: nearly all actives have a fitted effect of over 50% in size
Details: AlphaScreen JMJD2A-Tudor / H3K4me3 peptide binding; series mostly up to 114 µM
Potency is read from the fitted curve at half-maximal effect; tags tell the direction and shape of the fitted curve.

| Compound | Potency |
| --- | --- |
| O=C1C[C@@H](c2ccc(O)cc2)Oc2cc(O)cc(O)c21 | inactive |
| C#CCOCCOCCOCCNc1nc(N2CCN(C(=O)[C@H](CCC(=O)O)n3cc(C(N)CC(C)C)nn3)CC2)nc(N2CCN(C(=O)[C@H](Cc3cc4ccccc4[nH]3)n3cc(C(N)[C@H](C)CC)nn3)CC2)n1 (some centres undefined) | active: 56.2 µM |
| CC(C)(C)NC(=O)C(c1ccc(-c2ccccc2)cc1)N(C[C@H]1CC[C@@H]([C@@H]2CC[C@H](CO)O2)O1)C(=O)c1ccc2ccccc2c1 (some centres undefined) | inconclusive: 56.2 µM [inhibitor, partial curve] |
| Nc1nc(SCc2ccc(Cl)cc2)ns1 | inactive |
| C[C@@]12C(=O)Nc3ccc(F)cc3C(=O)N1[C@H]1c3ccccc3OC[C@@H]1[C@@H]2c1ccccc1 | inconclusive: 39.8 µM [inhibitor, full curve] |
| CCOc1ccc(CCNC(=O)c2cn(-c3ccc(OC)cc3)c(=O)c3ccccc23)cc1OCC | inconclusive: 17.8 µM [inhibitor, full curve, poor fit] |
| COCCCn1c(SCC(=O)NC2CCS(=O)(=O)C2)nnc1-c1ccc(Cl)cc1 (centres undefined) | inactive |
| COc1ccc(CCN2C(=O)C(O)=C(C(=O)c3ccco3)C2c2cccs2)cc1OC (centres undefined) | inconclusive: 89.1 µM [inhibitor, single point] |
| CCOc1ccc(NS(=O)(=O)c2cc(C(=O)N3CCC3)ccc2Cl)cc1 | inactive |
| O=C1CCN(Cc2ccccc2)C=C1c1ccc(Br)cc1 | inconclusive: 50.1 µM [inhibitor, partial curve] |
| O=C(Cn1ncc2c3ccccc3n(Cc3ccccc3F)c2c1=O)NCc1ccccc1Cl | inactive |
| CN(C)CCCC1Sc2ccccc2Sc2ccccc21 (centres undefined) | active: 20 µM |
| CCOC(=O)c1cc2c(=Cc3ccc(N(C)C)cc3)c3ccccc3n2[n+]1C | active: 25.1 µM |
| c1ccc(-c2ccc(C3=Nn4c(Cn5nnc6ccccc65)nnc4SC3)cc2)cc1 | inconclusive: 63.1 µM [inhibitor, partial curve] |
| COc1cccc(OCCNC(=O)c2cc(OC)c(OC)c(OC)c2)c1 | inactive |
| CCN(CC)c1cc(C)c2cc(NC(=O)/C=C/c3cc(OC)c(OC)c(OC)c3)ccc2n1 | inconclusive: 35.5 µM [inhibitor, partial curve] |
| COC(=O)C1=CN(c2ccc(F)cc2)C=C(C(=O)OC)C1c1cccc([N+](=O)[O-])c1 | inconclusive: 20 µM [inhibitor, partial curve] |
| CC(C)NC(=O)c1ccc(N2CCOCC2)nc1 | inactive |
| CCCCn1c(N)c(N(Cc2ccccc2OC)C(=O)CSCC(=O)Nc2cccc(C)c2)c(=O)[nH]c1=O | inconclusive: 20 µM [inhibitor, full curve, poor fit] |
